# The whole screen tested about 310,000 compounds, of which about 2,200 (0.71%) showed an effect of 50% or more. The effect is printed as a negative number. The list shows a part of the results.
# Target: human ether-à-go-go-related gene (hERG) potassium channel (human, UniProt Q12809)
# Experiment: primary screen, population patch clamp on CHO cells stably expressing hERG
# Sequence of human ether-à-go-go-related gene (hERG) potassium channel (Q12809 whole entry, looked up): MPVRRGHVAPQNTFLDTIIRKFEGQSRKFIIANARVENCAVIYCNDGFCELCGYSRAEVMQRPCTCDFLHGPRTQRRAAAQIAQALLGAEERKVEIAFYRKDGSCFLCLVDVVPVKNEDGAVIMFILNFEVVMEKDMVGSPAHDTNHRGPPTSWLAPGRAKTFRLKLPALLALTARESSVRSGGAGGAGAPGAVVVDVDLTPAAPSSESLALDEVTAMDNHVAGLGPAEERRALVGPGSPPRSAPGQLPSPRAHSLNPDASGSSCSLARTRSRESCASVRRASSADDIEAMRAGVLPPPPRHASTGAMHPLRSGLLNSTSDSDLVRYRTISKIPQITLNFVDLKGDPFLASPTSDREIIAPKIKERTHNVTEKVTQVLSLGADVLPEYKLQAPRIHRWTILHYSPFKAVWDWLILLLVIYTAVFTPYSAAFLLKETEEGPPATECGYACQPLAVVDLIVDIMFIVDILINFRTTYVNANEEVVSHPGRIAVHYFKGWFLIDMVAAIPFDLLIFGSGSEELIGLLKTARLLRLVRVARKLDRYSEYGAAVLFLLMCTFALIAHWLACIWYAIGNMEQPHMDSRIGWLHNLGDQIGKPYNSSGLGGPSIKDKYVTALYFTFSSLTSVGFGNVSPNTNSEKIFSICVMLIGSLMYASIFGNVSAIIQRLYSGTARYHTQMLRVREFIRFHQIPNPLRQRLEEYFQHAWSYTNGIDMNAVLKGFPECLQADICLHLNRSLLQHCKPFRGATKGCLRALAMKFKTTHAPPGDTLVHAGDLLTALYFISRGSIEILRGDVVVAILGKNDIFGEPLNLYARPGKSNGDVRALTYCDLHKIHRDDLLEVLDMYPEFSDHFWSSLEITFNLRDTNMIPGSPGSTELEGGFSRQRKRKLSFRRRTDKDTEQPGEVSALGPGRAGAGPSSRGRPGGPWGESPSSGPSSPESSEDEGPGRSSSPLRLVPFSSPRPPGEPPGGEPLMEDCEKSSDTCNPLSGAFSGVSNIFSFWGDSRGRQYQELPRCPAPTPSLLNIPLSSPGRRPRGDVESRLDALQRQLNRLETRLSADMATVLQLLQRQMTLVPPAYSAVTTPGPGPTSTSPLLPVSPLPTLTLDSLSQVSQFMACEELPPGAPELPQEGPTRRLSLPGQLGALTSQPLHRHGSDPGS
row,Compound,"hERG current change (%, negative = inhibition) at 1uM"
1,CN(C)C(=O)C1CC(=O)OC12CCCCC2 (centres unmarked),10%
2,Cc1nc(NCCc2ccccc2F)c(C#N)c(C)c1[N+](=O)[O-],13.1%
3,COc1ccc(NC(=O)c2oc3ccc(S(=O)(=O)N4CCOCC4)cc3c2C)cc1,3.1%
4,CN(C)S(=O)(=O)N1CCN(c2ccccc2)CC1,-0.132%
5,Oc1c(Br)cc(C=Nc2ccc3nc(-c4ccccc4)[nH]c3c2)c(O)c1Br,9.27%
6,Nc1ncc(-c2ccccc2)c(-c2ccc(O)cc2O)n1,-4.1%
7,CCN(C(=O)/C=C/c1ccc(OC)cc1)C1CCCCC1,11.4%
8,Cc1ccc(-c2csc(N(CCCN(C)C)C(=O)c3ccco3)n2)cc1.Cl,-36.6%
9,Cc1[nH]c2ccc(F)cc2c1CCN(Cc1cccnc1)C(=S)Nc1ccc(F)cc1,6.75%
10,CC(C)=CCC/C(C)=C/COc1ccc2ccc(=O)oc2c1,-3.75%
11,S=C(NCCc1ccccc1)N/N=C/c1ccc(Cl)cc1,18.5%
12,COCCCNC(=O)c1ccc(CNS(=O)(=O)c2ccc(NC(C)=O)cc2)cc1,10.5%
13,Cc1c(C(=O)N/N=C/c2ccccn2)nnn1-c1nonc1N,6.85%
14,CCOC(=O)Cc1csc(NC(=O)c2cc(=O)c3ccccc3o2)n1,5.21%
15,Cc1ccc(S(=O)(=O)NC(Cc2ccccc2)C(=O)NN)cc1 (centres unmarked),13.6%
16,Cc1ccc2c(c1)C1CN(C)CCC1N2C(=O)COc1ccc(N(C)C(=O)c2ccccc2)cc1 (centres unmarked),4.6%
17,CCSc1nc2c(c(=O)[nH]1)C(c1ccncc1)C(C(=O)OC)=C(C)N2 (centres unmarked),6.7%
18,COC(=O)c1c(N2C(=O)CCC2=O)sc2c1CCCC2,7.34%
19,Cn1ncc([N+](=O)[O-])c1C(=O)N/N=C/c1cccc([N+](=O)[O-])c1,15.4%
20,COc1cc(Cl)cc(NC(=O)CCN2CCN(C)CC2)c1,-20.8%
21,COc1ccc(/C=C/C2=NN(Cc3ccccc3)C(=O)CC2)cc1,3.98%
22,Cc1cc(Nc2ccccc2C(=O)O)n(-c2cccc(Cl)c2)n1,10.5%

row,Compound,"hERG current change (%, negative = inhibition) at 1uM"
1,CC1=C(C(=O)Nc2ccccc2)C(c2ccccc2)N2C(=O)CSC2=N1 (centres unmarked),3.28%
2,CCOc1ccc(Br)cc1S(=O)(=O)N1CCC(C(N)=O)CC1,10.5%
3,Cc1cc(NS(=O)(=O)c2ccc(NC(=O)COc3ccccc3C(C)(C)C)cc2)no1,17.5%
4,Cc1ccc(C2(C)NC(=O)N(CC(=O)Nc3ccccc3C(=O)N3CCCCC3)C2=O)cc1 (centres unmarked),7.18%
5,CC1CCCC1/C(=N/O)c1ccccc1 (centres unmarked),6.65%
6,Cc1ccccc1NC(=O)c1ccc2snnc2c1,1.6%
7,COc1c(F)c(F)c(C(=O)O)c(Nc2ccc(C)cc2C)c1F,9.99%
8,COc1cc2nc(C3CCC3)n(NC(=O)C3CCCC(OC)C3)c(=O)c2cc1OC (centres unmarked),2.13%
9,O=C(Nc1ccc(N2CCOCC2)cc1N1CCOCC1)c1ncoc1-c1cccc(F)c1,7.93%
10,COCCNC(=O)c1ccc2c(=O)n(CCOC)c(=O)[nH]c2c1,11.4%
11,COC(=O)Cc1ccc(NC(=S)Nc2ccc(N3CCOCC3)cc2)cc1,-0.428%
12,CCn1c(SCc2ccccc2Cl)nc2ccccc21,6.94%
13,Cn1c(N2CCOCC2)c(C=O)c2ccccc21,6.08%
14,COCCNc1ncnc2c1cnn2Cc1ccccc1Cl,6.61%
15,CCN(CC)S(=O)(=O)c1ccc(C)c(NC(=S)N2CCN(Cc3ccc4c(c3)OCO4)CC2)c1,8.56%
16,COC(=O)c1cccc(NC(=O)CCN2C(=O)C3CC=CCC3C2=O)c1 (centres unmarked),4.43%
17,CC(C)n1c(=O)c(C=Nc2ccc(Cl)cc2)c(O)n(Cc2ccco2)c1=O,8.62%
18,COC(=O)c1ccc(CNC(=O)COC(=O)c2ccc(N(C)C)cc2)cc1,18.1%
19,CSc1nc(C)c(C(=O)Nc2ccccc2)c(C)c1C#N,14.7%
20,O=C(COC(=O)/C=C/c1cccs1)NC1CCCCC1,7.77%
21,Cc1cc(C(=O)Nc2ccccn2)cs1,-1.26%
22,Cc1cc(C(=O)CSc2n[nH]c(-c3ccccc3F)n2)c(C)n1Cc1cccs1,11.6%

# — publication PMC4336329 (PLoS ONE, 2015)
